# Laboratory results published in PubChem BioAssay (Tox21).
# Where “and” joins values, the source holds several entries; their conditions need not be identical. Equal values may be shown once. The inconclusive results got no clear call from the source; some entries with a clear call stand among them for comparison. Where the call is inconclusive, the potency comes from a doubtful curve fit. Some compounds were tested as several samples or in several runs, with calls that do not always agree. Calls of active or inactive are those of the source. Calls follow the shape of the dose curve; as a rule, active = well fitted curve in the direction sought with a large enough effect in the repeat runs; inconclusive = weak or mixed curves; inactive = no such curve, though single readings can be large; an effect the other way counts as inactive or inconclusive.
# Assays:
# [1] = Human pregnane X receptor (PXR) small molecule agonists, qHTS cell viability counter screen (AID 1346977); also: nearly all actives have a fitted effect of over 50% in size
# Outline: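 In each well, the PXR reporter HepG2 line was checked for viability: CellTiter-Fluor reagent added 23hr post-dosing, fluorescence read after 1hr incubation at 37C.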
# [2] = Caspase-3/7 induction in HepG2 cells by small molecules, qHTS cell viability counter screen (AID 1346981); also: nearly all actives have a fitted effect of over 30% in size
# Outline: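 Counter screen for cytotoxicity: HepG2 exposed 16 hr to compounds, then CellTiter-Fluor viability signal (fluorescence, 1 hr reagent incubation).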
# [3] = target: Nuclear receptor subfamily 1 group I member 2 (Homo sapiens) (UniProt O75469); assay: Human pregnane X receptor (PXR) small molecule agonists, qHTS assay (AID 1346982); also: nearly all actives have a fitted effect of over 35% in size
# Outline: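 Luminescence (ONE-Glo, 30 min RT) after 24 hr compound exposure of PXR-Luc HepG2 cells; cells rested 5 hr post-plating in 5% charcoal-stripped FBS medium.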
# [4] = target: Cytochrome P450 2D6 (Homo sapiens) (UniProt P10635); assay: Cytochrome P450 Family 2 Subfamily D Member 6 (CYP2D6) small molecule antagonists: luciferase reporter qHTS assay (AID 1671196); also: nearly all actives have a fitted effect of over 50% in size
# Outline: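 Inhibition of CYP2D6 was gauged by loss of luminescence, since light produced tracks the luciferin generated from a proluciferin substrate. A 10 min room-temperature preincubation preceded 1 h NADPH-supported turnover.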
# [5] = target: Cytochrome P450 2C9 (Homo sapiens) (UniProt P11712); assay: Cytochrome P450 Family 2 Subfamily C Member 9 (CYP2C9) small molecule antagonists: luciferase reporter qHTS assay (AID 1671198); also: nearly all actives have a fitted effect of over 50% in size
# Outline: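 CYP2C9 activity was measured with a P450-Glo proluciferin substrate. Enzyme–substrate mix was held with compound for 10 min at room temperature, then NADPH regeneration solution was added for 1 h at 37C. Luciferin product was read as luminescence.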
# [6] = target: Cytochrome P450 2C19 (Homo sapiens) (UniProt P33261); assay: Cytochrome P450 Family 2 Subfamily C Member 19 (CYP2C19) small molecule antagonists: luciferase reporter qHTS assay (AID 1671197); also: nearly all actives have a fitted effect of over 65% in size
# Outline: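 Compounds were tested on CYP2C19 activity via proluciferin conversion to luciferin. The 37C, 1 h reaction followed NADPH addition; detection reagent stopped it.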
# [7] = target: Cytochrome P450 3A4 (Homo sapiens) (UniProt P08684); assay: Cytochrome P450 Family 3 Subfamily A Member 4 (CYP3A4) small molecule antagonists: luciferase reporter qHTS assay (AID 1671201); also: nearly all actives have a fitted effect of over 50% in size
# Outline: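 CYP3A4 activity was followed with a P450-Glo proluciferin substrate. Test compounds in DMSO were preincubated 10 min; NADPH regeneration then ran 1 h, and light output was read 20 min after detection reagent.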
# [8] = Caspase-3/7 induction in CHO-K1 cells by small molecules, qHTS assay (AID 1346980); also: nearly all actives have a fitted effect of over 15% in size
# Outline: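 Wild-type cells were seeded at 1,500 per well and settled 5 hr at 37 C, 5% CO2, then exposed to DMSO-dissolved compounds for 17 hr. Caspase-Glo 3/7 reagent was added, and luminescence was read after 30min at room temperature.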
# [9] = target: Nuclear receptor subfamily 1 group I member 2 (Homo sapiens) (UniProt O75469); assay: Human pregnane X receptor (PXR) activation by small molecules, qHTS assay (AID 1346985); also: nearly all actives have a fitted effect of over 40% in size
# Outline: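 DPX-2 cells (HepG2 co-transfected with a PXR response element and a CYP3A4-promoter luciferase construct) were seeded at 2,000 per well, rested 5 hr at 37C, then exposed to DMSO-dissolved compounds for 24 hr. Activation was read as luciferase luminescence.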
# [10] = target: Cytochrome P450 1A2 (Homo sapiens) (UniProt P05177); assay: Cytochrome P450 Family 1 Subfamily A Member 2 (CYP1A2) small molecule antagonists: luciferase reporter qHTS assay (AID 1671199); also: nearly all actives have a fitted effect of over 50% in size
# Outline: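 Signal from luciferin formed by CYP1A2 from a proluciferin substrate is read as luminescence, expressed in relative luminescence units. Compounds sit with enzyme 10 min, NADPH-driven reaction runs 1 h, all at room temperature.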
# Potency is read from the fitted curve at half-maximal effect; tags tell the direction and shape of the fitted curve.
# Chain of UniProt P11712 (P11712 whole entry, looked up): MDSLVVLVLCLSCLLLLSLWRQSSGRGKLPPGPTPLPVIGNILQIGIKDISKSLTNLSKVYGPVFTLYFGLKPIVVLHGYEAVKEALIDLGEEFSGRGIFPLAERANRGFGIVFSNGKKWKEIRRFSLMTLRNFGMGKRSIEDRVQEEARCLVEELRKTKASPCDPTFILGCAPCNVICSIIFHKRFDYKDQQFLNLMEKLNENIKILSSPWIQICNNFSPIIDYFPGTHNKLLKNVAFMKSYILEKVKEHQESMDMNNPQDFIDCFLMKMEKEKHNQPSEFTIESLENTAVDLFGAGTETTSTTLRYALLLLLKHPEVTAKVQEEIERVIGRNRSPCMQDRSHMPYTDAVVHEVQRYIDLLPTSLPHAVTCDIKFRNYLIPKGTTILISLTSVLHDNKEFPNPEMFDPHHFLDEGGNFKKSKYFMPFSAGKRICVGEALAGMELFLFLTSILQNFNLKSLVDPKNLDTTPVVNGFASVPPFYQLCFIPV
# Chain of UniProt P33261 (P33261 whole entry, looked up): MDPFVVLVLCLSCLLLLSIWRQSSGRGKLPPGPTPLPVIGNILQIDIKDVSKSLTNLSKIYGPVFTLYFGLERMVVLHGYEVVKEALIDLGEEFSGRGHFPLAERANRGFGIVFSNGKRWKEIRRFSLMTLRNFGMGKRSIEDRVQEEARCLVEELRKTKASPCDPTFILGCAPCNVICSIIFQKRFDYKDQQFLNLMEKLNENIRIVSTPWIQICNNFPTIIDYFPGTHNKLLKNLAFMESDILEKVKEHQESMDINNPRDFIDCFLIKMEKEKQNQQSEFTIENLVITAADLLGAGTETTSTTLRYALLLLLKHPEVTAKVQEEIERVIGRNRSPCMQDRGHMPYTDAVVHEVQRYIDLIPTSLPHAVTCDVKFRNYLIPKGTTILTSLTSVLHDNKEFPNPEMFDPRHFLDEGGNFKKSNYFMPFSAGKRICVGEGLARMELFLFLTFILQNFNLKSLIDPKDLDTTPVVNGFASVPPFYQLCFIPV
# Chain of UniProt P05177 (P05177 whole entry, looked up): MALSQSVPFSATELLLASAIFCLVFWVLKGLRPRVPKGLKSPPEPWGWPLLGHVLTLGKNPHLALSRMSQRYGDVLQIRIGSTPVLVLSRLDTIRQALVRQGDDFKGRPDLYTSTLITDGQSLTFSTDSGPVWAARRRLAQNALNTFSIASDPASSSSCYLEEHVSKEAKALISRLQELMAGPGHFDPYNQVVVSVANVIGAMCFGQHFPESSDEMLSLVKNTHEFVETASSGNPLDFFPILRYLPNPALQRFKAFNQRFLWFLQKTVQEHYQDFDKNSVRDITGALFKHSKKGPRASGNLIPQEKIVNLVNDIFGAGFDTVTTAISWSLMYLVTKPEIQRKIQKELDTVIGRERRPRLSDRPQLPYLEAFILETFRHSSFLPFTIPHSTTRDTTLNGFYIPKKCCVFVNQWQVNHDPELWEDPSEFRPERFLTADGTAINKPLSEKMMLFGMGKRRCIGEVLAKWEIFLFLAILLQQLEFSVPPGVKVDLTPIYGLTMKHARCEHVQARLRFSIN
# Chain of UniProt P10635 (P10635 whole entry, looked up): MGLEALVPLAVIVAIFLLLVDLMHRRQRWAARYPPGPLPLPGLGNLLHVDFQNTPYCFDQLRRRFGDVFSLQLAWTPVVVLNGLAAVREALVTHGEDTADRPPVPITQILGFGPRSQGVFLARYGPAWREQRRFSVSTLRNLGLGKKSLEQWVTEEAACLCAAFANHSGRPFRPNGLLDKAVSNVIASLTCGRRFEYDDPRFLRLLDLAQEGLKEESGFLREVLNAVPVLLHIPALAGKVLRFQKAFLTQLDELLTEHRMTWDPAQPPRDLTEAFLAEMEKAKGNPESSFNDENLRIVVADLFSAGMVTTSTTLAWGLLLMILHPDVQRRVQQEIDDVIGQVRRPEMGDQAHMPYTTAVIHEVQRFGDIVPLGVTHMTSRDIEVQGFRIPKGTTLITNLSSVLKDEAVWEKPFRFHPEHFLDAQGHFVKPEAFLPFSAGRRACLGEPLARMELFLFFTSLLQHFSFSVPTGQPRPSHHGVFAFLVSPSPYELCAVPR
# Chain of UniProt P08684 (P08684 whole entry, looked up): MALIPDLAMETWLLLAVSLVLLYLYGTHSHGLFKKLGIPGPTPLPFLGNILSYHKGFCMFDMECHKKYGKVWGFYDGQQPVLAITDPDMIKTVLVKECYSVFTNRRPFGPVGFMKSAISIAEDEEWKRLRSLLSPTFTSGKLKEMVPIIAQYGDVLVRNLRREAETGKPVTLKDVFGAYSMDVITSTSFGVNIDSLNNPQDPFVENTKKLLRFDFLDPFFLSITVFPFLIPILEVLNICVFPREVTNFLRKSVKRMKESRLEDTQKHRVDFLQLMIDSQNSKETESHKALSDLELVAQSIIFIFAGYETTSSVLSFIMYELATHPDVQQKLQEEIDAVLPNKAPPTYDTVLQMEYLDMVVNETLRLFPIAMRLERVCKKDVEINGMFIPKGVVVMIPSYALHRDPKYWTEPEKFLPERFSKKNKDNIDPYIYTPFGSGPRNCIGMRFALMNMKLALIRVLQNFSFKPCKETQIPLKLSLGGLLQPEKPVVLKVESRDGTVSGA
smiles,measurement,setting,value
CC1COc2ccccc2N1C(=O)C(Cl)Cl (stereo unspecified),Potency,[1],"active: 39.8 µM and inconclusive: 54.4 µM [cytotoxic, partial curve]"
same,Potency,[2],active: 61 µM and active: 27.3 µM
same,Potency,[3],active: 61 µM and active: 54.4 µM
same,Potency,[4],active: 15.9 µM and inactive
same,Potency,[5],active: 15.9 µM and active: 28.2 µM
CCOc1ccccc1C(N)=O,Potency,[1],"inconclusive: 33.5 µM [cytotoxic, single point]"
same,Potency,[3],inactive
same,Potency,[4],inactive
same,Potency,[6],active: 20 µM and inactive
C=C(CC)C(=O)c1ccc(OCC(=O)O)c(Cl)c1Cl,Potency,[1],"inconclusive: 29.8 µM [cytotoxic, single point]"
same,Potency,[2],"inconclusive: 29.8 µM [cytotoxic, single point]"
same,Potency,[3],"inconclusive: 12.1 µM [activator, single point]"
same,Potency,[6],"inconclusive: 35.3 µM [inhibitor, full curve, poor fit]"
same,Potency,[7],inactive
NCCS(=O)(=O)O,Potency,[1],inconclusive: 31.8 µM [cytotoxic]
same,Potency,[2],"inconclusive: 31.8 µM [cytotoxic, partial curve]"
Nc1c2c(nc3ccccc13)CCCC2,Potency,[1],"active: 54.5 µM and inconclusive: 30.6 µM [cytotoxic, partial curve] and inconclusive: 33.5 µM [cytotoxic, single point]"
same,Potency,[2],"inconclusive: 48.6 µM [cytotoxic, partial curve] and inconclusive: 68.6 µM [cytotoxic, partial curve, poor fit]"
CC(=O)NC1(c2cccc(F)c2)CCN(CC[C@@]2(c3ccc(Cl)c(Cl)c3)CN(c3ccccc3)C(=O)CO2)CC1,Potency,[1],active: 34.5 µM
same,Potency,[8],active: 48.7 µM
same,Potency,[5],active: 8.96 µM
same,Potency,[7],inactive
Cc1ccc(Nc2c(F)cccc2Cl)c(CC(=O)O)c1,Potency,[1],inactive
same,Potency,[2],"inconclusive: 33.5 µM [cytotoxic, partial curve, poor fit]"
same,Potency,[3],"inconclusive: 33.5 µM [activator, single point]"
same,Potency,[5],active: 17.4 µM
CCC(C)c1cc([N+](=O)[O-])cc([N+](=O)[O-])c1OC(=O)OC(C)C (stereo unspecified),Potency,[1],active: 34.4 µM
same,Potency,[2],active: 61.1 µM
same,Potency,[4],"inconclusive: 63.3 µM [inhibitor, partial curve, poor fit]"
same,Potency,[5],active: 35.6 µM
same,Potency,[7],"inconclusive: 71 µM [inhibitor, partial curve, poor fit]"
c1ccc(-c2ccccn2)nc1,Potency,[1],inactive
same,Potency,[8],inconclusive: 77 µM [activator]
same,Potency,[3],active: 24.3 µM
same,Potency,[6],inactive
O=[N+]([O-])c1ccc(O)c2ncccc12,Potency,[1],"inconclusive: 1.68 µM [cytotoxic, full curve]"
same,Potency,[8],active: 5.96 µM
same,Potency,[9],"inconclusive: 14.1 µM [activator, partial curve]"
Cc1cccc(Br)c1,Potency,[1],"inconclusive: 68.9 µM [cytotoxic, single point]"
same,Potency,[3],"inconclusive: 68.9 µM [activator, single point]"
same,Potency,[5],active: 40.1 µM
same,Potency,[10],"inconclusive: 16 µM [inhibitor, full curve]"
C=CC(=C)CCCC(C)(C)OC(C)=O,Potency,[1],inactive
same,Potency,[2],"inconclusive: 21.7 µM [rising, partial curve, poor fit]"
same,Potency,[10],"inconclusive: 39.9 µM [inhibitor, partial curve]"
O=C(CCCN1CC=C(n2c(=O)[nH]c3ccccc32)CC1)c1ccc(F)cc1,Potency,[1],inconclusive: 29.8 µM [cytotoxic]
same,Potency,[3],"inconclusive: 26.6 µM [activator, partial curve]"
same,Potency,[9],"inconclusive: 31.6 µM [activator, single point]"
Oc1ccc(Sc2ccc(O)cc2)cc1,Potency,[1],inactive
same,Potency,[3],active: 51 µM
same,Potency,[6],active: 37.3 µM
CCN1/C(=C/C=C/c2sc3ccccc3[n+]2CC)Sc2ccccc21,Potency,[1],active: 5.17 µM
same,Potency,[2],active: 10.3 µM
same,Potency,[5],"inconclusive: 6.74 µM [inhibitor, partial curve]"
same,Potency,[10],"inconclusive: 5.6 µM [inhibitor, full curve, poor fit]"
Nc1ccc(Oc2ccc(N)c(N)c2)cc1,Potency,[1],"inconclusive: 68.6 µM [cytotoxic, partial curve, poor fit]"
same,Potency,[2],"inconclusive: 54.5 µM [cytotoxic, partial curve]"
same,Potency,[6],active: 20 µM
CC(=O)N/N=C/c1ccc([N+](=O)[O-])o1,Potency,[1],"inconclusive: 33.5 µM [cytotoxic, partial curve, poor fit]"
same,Potency,[3],"inconclusive: 29.8 µM [activator, single point]"
same,Potency,[10],"inconclusive: 27.5 µM [inhibitor, partial curve]"
